# PubChem BioAssay (Tox21)
# Where “and” joins values, the source holds several entries; their conditions need not be identical. Equal entries are not always repeated. This list was built around the results that the source calls inconclusive (neither active nor inactive); the mix of calls is not that of the screen. For some assays here: Potencies of inconclusive entries are doubtful fits and often do not repeat. Calls of active or inactive are those of the source. Unless noted, calls follow the shape of the dose curve; as a rule, active = well fitted curve in the direction sought with a large enough effect in the repeat runs; inconclusive = weak or mixed curves; inactive = no such curve, though single readings can be large; an effect the other way counts as inactive or inconclusive.
# Assays:
# [1] = qHTS assay for small molecule agonists of the p53 signaling pathway (AID 651631; calls by dose curve; also: nearly all actives have a fitted effect of over 15% in size; also: potency is read from the fitted curve at half-maximal effect; as to activation: % is scaled to controls: 0 for no effect and ±100 for the full control effect); settings: HCT-116 p53RE-bla reporter, beta-lactamase FRET ratio, 16 h; activation: at 73.3 µM (top of the series) unless noted
# Outline: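 Readout was fluorescence from the LiveBLAzer FRET substrate, applied for 2 h at room temperature after 16 h compound exposure at 37 °C. Cells were the p53RE-bla HCT-116 line, with beta-lactamase driven by p53 response elements.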
# [2] = qHTS assay for small molecule disruptors of the mitochondrial membrane potential - cell viability (AID 720634; calls by dose curve; also: nearly all actives have a fitted effect of over 20% in size; also: potency is read from the fitted curve at half-maximal effect)
# Outline: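 Viability of HepG2 cells is scored from ATP content by luminescence; cells are exposed to compound for 1 hr at 37 C and 5% CO2, then dosed with m-MPI dye before the CellTiter-Glo reagent.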
# [3] = qHTS assay for small molecule disruptors of the mitochondrial membrane potential (AID 720635); settings: HepG2 mitochondrial membrane potential, Mito-MPS dye ratio; also: potency is read from the fitted curve at half-maximal effect; as to ratio activity, negative = MMP loss: % is scaled to controls: 0 for no effect and ±100 for the full control effect
# Outline: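 HepG2 cells (2,000/well) attached overnight at 37C, then took compound for 1 hr at 37C, 5% CO2. Mito-MPS dye was added for 30 min; fluorescence was read at 490/535 nm (monomers) and 540/590 nm (aggregates).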
# [4] = target: Glucocorticoid receptor (Homo sapiens) (UniProt P04150); assay: qHTS assay to identify small molecule agonists of the glucocorticoid receptor (GR) signaling pathway (AID 720691; active = well fitted activation curve with a large enough effect in the signal ratio in the repeat runs, not every such curve was filed as active; inconclusive = weak or mixed curves, or effect the other way; inactive = no such curve, though single readings can be large or run the other way; the % refers to the signal ratio; also: potency is read from the fitted curve at half-maximal effect); settings: GR-bla HeLa, beta-lactamase reporter ratio, 18 h; activation: at 62.4 µM (top of the series) unless noted
# Chain of UniProt P04150 (P04150 whole entry, looked up): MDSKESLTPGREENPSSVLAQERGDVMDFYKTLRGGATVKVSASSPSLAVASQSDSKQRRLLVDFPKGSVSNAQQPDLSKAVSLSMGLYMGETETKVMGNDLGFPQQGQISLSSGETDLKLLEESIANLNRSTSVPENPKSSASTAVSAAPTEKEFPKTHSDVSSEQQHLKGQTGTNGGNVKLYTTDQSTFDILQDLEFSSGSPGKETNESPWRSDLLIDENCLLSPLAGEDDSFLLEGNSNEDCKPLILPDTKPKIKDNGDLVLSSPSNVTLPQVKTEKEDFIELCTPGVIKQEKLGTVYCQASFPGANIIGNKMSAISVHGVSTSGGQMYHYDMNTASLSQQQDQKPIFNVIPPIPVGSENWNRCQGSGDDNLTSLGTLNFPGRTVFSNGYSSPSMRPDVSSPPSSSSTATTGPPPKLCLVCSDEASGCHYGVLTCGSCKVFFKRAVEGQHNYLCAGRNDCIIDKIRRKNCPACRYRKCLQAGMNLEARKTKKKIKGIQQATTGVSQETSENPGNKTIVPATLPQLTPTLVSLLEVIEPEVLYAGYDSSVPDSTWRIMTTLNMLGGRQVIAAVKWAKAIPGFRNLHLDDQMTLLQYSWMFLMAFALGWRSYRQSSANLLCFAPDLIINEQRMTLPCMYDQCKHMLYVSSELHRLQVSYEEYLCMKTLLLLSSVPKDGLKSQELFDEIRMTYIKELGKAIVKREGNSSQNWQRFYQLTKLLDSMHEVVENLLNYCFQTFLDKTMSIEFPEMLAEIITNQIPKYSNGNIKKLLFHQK
# Outline: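 Compounds in DMSO, alongside positive controls, were added to GR-bla HeLa reporter cells and incubated 18 h at 37 C; GRE-driven beta-lactamase was detected by fluorescence after 2 h with FRET substrate at room temperature.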
# [5] = qHTS assay to identify small molecule antagonists of the glucocorticoid receptor (GR) signaling pathway - cell viability counter screen (AID 720693); settings: GR-bla HeLa viability, CellTiter-Glo luminescence, 18 h, with 5 nM dexamethasone present; viability change, negative = cytotoxic: at 58.5 µM (top of the series) unless noted; also: nearly all actives have a fitted effect of over 55% in size; also: potency is read from the fitted curve at half-maximal effect
# [6] = qHTS assay for identifying genotoxic compounds that show differential cytotoxicity against isogenic chicken DT40 cell lines with known DNA damage response pathways - Rev3 mutant cell line (AID 743014); settings: chicken DT40 Rev3-/- viability, CellTiter-Glo, 40 h; activity, negative = cytotoxicity: at 68.4 µM (top of the series); also: nearly all actives have a fitted effect of over 55% in size; also: potency is read from the fitted curve at half-maximal effect
# [7] = qHTS assay for identifying genotoxic compounds that show differential cytotoxicity against isogenic chicken DT40 cell lines with known DNA damage response pathways - Rad54/Ku70 mutant cell line (AID 743015); settings: DT40 Rad54/Ku70 mutant viability, CellTiter-Glo, 40 h; activity change, negative = cytotoxicity: at 66.8 µM (top of the series); also: potency is read from the fitted curve at half-maximal effect; nearly all actives have a fitted effect of over 60% in size
# [8] = qHTS assay to identify small molecule antagonists of the androgen receptor (AR) signaling pathway - cell viability counter screen (AID 743033; also: potency is read from the fitted curve at half-maximal effect; nearly all actives have a fitted effect of over 45% in size); settings: AR-bla HEK293 viability, CellTiter-Glo luminescence, 16 h; activity change, negative = cytotoxicity: at 58.5 µM (top of the series)
# [9] = target: Glucocorticoid receptor (Homo sapiens) (UniProt P04150); assay: qHTS assay to identify small molecule antagonists of the glucocorticoid receptor (GR) signaling pathway (AID 720692; active = well fitted inhibition curve with a large enough effect in the signal ratio in the repeat runs, not every such curve was filed as active; inconclusive = weak or mixed curves, or effect the other way; inactive = no such curve, though single readings can be large or run the other way; the % refers to the signal ratio; also: potency is read from the fitted curve at half-maximal effect; as to activity change, negative = inhibition: % is scaled to controls: 0 for no effect and ±100 for the full control effect); settings: GR-bla HeLa, beta-lactamase FRET ratio, dexamethasone-stimulated, 18 h; activity change, negative = inhibition: at 58.5 µM (top of the series) unless noted
# Outline: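 In a 1536-well cell format, compounds were added 4 h after seeding GR-bla HeLa cells, together with dexamethasone at 5 nM final; reporter activity was measured by FRET-substrate fluorescence following 18 h at 37 C.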
# [10] = qHTS assay for identifying genotoxic compounds that show differential cytotoxicity against isogenic chicken DT40 cell lines with known DNA damage response pathways - wild type cell line (AID 743012); settings: DT40 wild type chicken cells viability, CellTiter-Glo, 40 h; activity change, negative = cytotoxicity: at 68.4 µM (top of the series) unless noted; also: % is scaled to controls: 0 for no effect and ±100 for the full control effect; nearly all actives have a fitted effect of over 60% in size
# Outline: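 Viability of DNA repair-proficient chicken DT40 cells was assessed by CellTiter-Glo luminescence following 40 h compound exposure at 37 C/5% CO2.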
# [11] = qHTS assay to test for compound auto fluorescence at 460 nm (blue) in HEK293 cells (AID 720678); also: potency is read from the fitted curve at half-maximal effect
# Outline: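 Blue read-out at excitation 405 nm and emission 460 nm follows overnight compound exposure of HEK293 cells at 37C in 5% CO2. Activity is given as auto fluorescence equivalency to triamterene.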
# [12] = qHTS assay to test for compound auto fluorescence at 460 nm (blue) in HEK293 cell free culture (AID 720681); also: potency is read from the fitted curve at half-maximal effect
# Outline: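 Test compounds were pinned into cell-free culture medium (DMEM with 10% FBS) and fluorescence was read directly at Ex/Em 405/460 nm. Signals were expressed as fluorescence equivalents of triamterene, with DMSO vehicle as control.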
# [13] = qHTS assay to test for compound auto fluorescence at 535 nm (green) in HEK293 cells (AID 720680); settings: green autofluorescence 485/535 nm; at 91.3 µM (top of the series); also: % is scaled to controls: 0 for no effect and ±100 for the full control effect
# [14] = qHTS assay to test for compound auto fluorescence at 460 nm (blue) in HepG2 cell free culture (AID 720685); also: potency is read from the fitted curve at half-maximal effect
# Outline: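 Cell-free plates of MEM plus 10% FBS received 23 nL compound or DMSO vehicle; blue-channel (405/460 nm) intensity scored against triamterene as reference fluorophore.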
# [15] = qHTS assay to test for compound auto fluorescence at 460 nm (blue) in HepG2 cells (AID 720687); also: potency is read from the fitted curve at half-maximal effect
# Outline: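 Cells (2,000/well in MEM with 10% FBS) attached overnight at 37 C, then were exposed to compound or DMSO for 1 hr at 37 C, 5% CO2. Fluorescence read at Ex/Em 405/460 nm, expressed as triamterene-equivalent signal.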
# [16] = ratio activity, negative = MMP loss: at 83.2 µM (top of the series) unless noted
# Tags tell the direction and shape of the fitted curve or compound fluorescence and quenching.
compound,measurement,setting,value
CC1CCC(C(C)C)C(OC(=O)c2ccccc2N)C1 (configuration not stated),Potency,[1],"inconclusive: 29.8 µM [cytotoxic, partial curve] and inconclusive: 67.6 µM [cytotoxic]"
same,Potency,[2],"inconclusive: 29.8 µM [cytotoxic] and inconclusive: 30.2 µM [cytotoxic, partial curve, poor fit]"
same,Potency,[3]; [16],active: 13.3 µM and active: 17 µM
same,Potency,[4],"inconclusive: 13.4 µM [cytotoxic, single point] and inconclusive: 54.2 µM [cytotoxic]"
same,Potency,[5],"inconclusive: 26.8 µM [cytotoxic, single point]"
same,Potency,[6],"inconclusive: 21.1 µM [cytotoxic, partial curve, poor fit]"
same,Potency,[7],"inconclusive: 26.9 µM [cytotoxic, single point]"
same,Potency,[8],"inconclusive: 24.2 µM [cytotoxic, partial curve]"
CC1(C)C(C=C(Cl)Cl)C1C(=O)OC(C#N)c1ccc(F)c(Oc2ccccc2)c1 (configuration not stated),Potency,[1],inconclusive: 77 µM
same,Potency,[2],"inconclusive: 68.6 µM [cytotoxic, single point]"
same,Potency,[3]; [16],active: 54.5 µM
same,Potency,[4],"inconclusive: 49 µM [partial curve, poor fit]"
same,"activity change, negative = inhibition",[9],inconclusive: -17.5%
same,Potency,[10],inactive
same,Potency,[7],"inconclusive: 24.3 µM [cytotoxic, single point]"
CN1CCc2cc3c(cc2C1O)OCO3 (configuration not stated),Potency,[1],active: 61.5 µM
same,"ratio activity, negative = MMP loss",[3]; [16],inconclusive: -13.4% [at 95.3 µM]
same,Potency,[11],active: 35.5 µM [fluorescent]
same,Potency,[12],active: 39.8 µM
same,Potency,[4],inconclusive: 43.9 µM [activator]
same,Potency,[9],"inconclusive: 43.9 µM [activator, partial curve]"
Clc1nc(Cl)nc(Cl)n1,Potency,[1],inactive
same,"ratio activity, negative = MMP loss",[3]; at 83.2 µM (top of the series),inactive: 7.95%
same,"ratio activity, negative = MMP loss",[3]; [16],inconclusive: 7.31%
CC(C)Oc1cccc(NC(=O)c2ccccc2C(F)(F)F)c1,Potency,[1],inconclusive: 68.6 µM [cytotoxic]
same,Potency,[2],active: 30.6 µM
same,Potency,[9],"inconclusive: 49 µM [activator, partial curve, poor fit]"
same,Potency,[5],inactive
c1ccc2cc3c(cc2c1)-c1cccc2cccc-3c12,Potency,[1],active: 1.7 µM
same,Potency,[2],inactive
same,"ratio activity, negative = MMP loss",[3]; [16],inconclusive: -26.4%
same,Potency,[11],active: 3.55 µM [fluorescent]
same,"fluorescence, % of fluorescein",[13],inactive: 0.0055%
same,Potency,[12],"inconclusive: 2.24 µM [rising, partial curve, poor fit]"
same,Potency,[14],active: 1.41 µM [fluorescent]
same,Potency,[15],"inconclusive: 2 µM [fluorescent, partial curve, poor fit]"
same,Potency,[4],inconclusive: 2.16 µM [fluorescent]
same,Potency,[9],"inconclusive: 3.05 µM [fluorescent, full curve, poor fit]"
same,Potency,[6],inactive
Oc1ccc2ccc3cccc4ccc1c2c34,Potency,[1],"inconclusive: 54.5 µM [activator, partial curve]"
same,Potency,[2],"inconclusive: 48.6 µM [cytotoxic, partial curve]"
same,Potency,[11],active: 35.5 µM [fluorescent]
same,Potency,[9],"inconclusive: 61.6 µM [inhibitor, single point]"
same,Potency,[5],"inconclusive: 61.6 µM [cytotoxic, single point]"
same,Potency,[6],active: 48.6 µM
C=CCC1=C(C)C(OC(=O)C2C(C=C(C)C)C2(C)C)CC1=O (configuration not stated),Potency,[1],"inconclusive: 57.8 µM [cytotoxic, partial curve]"
same,Potency,[2],active: 11.5 µM
same,Potency,[9],inconclusive: 58.3 µM [cytotoxic]
CCOP(=O)(OCC)O/C(=C/Cl)c1ccc(Cl)cc1Cl,Potency,[1],"inconclusive: 33.5 µM [falling, single point]"
same,Potency,[2],"inconclusive: 30.6 µM [cytotoxic, partial curve, poor fit]"
same,Potency,[9],inconclusive: 26.8 µM [inhibitor] and active: 49 µM
same,Potency,[6],active: 23.7 µM and active: 27.3 µM
same,Potency,[8],"inconclusive: 43.6 µM [cytotoxic, partial curve]"
CC(C)N(C(=O)SC/C(Cl)=C/Cl)C(C)C,Potency,[1],"inconclusive: 24.5 µM [cytotoxic, full curve]"
same,Potency,[2],active: 54.8 µM
same,Potency,[3]; [16],active: 48.9 µM
same,Potency,[10],inactive
CCCCOCN(C(=O)CCl)c1c(CC)cccc1CC,Potency,[1],"inconclusive: 38.6 µM [rising, partial curve, poor fit]"
same,Potency,[2],"inconclusive: 34.4 µM [cytotoxic, partial curve, poor fit]"
same,Potency,[3]; [16],"inconclusive: 48.6 µM [inhibitor, partial curve, poor fit]"
same,Potency,[9],active: 21.9 µM
same,Potency,[8],"inconclusive: 54.9 µM [cytotoxic, partial curve, poor fit]"
